# According to PubChem BioAssay AID504845 (National Center for Advancing Translational Sciences (NCATS), 2011):
# Out of some 390,000 compounds screened, about 150 (0.038%) were called active. Inconclusive results, whose numbers are uncertain, are shown with a selection of clear calls. Calls follow the shape of the dose curve; as a rule, active = well fitted inhibition curve with a large enough effect; inconclusive = small, poorly fitted or top-dose-only effect; inactive = no such curve, though single readings can be large or run the other way. Potencies of inconclusive entries are doubtful fits and often do not repeat.
# Target: Regulator of G-protein signaling 4 (Homo sapiens) (UniProt P49798)
# Experiment: Inhibitors of Regulator of G Protein Signaling (RGS) 4: qHTS; also: nearly all actives have a fitted effect of over 75% in size
# Conditions: Transcreener GDP fluorescence polarization, RGS4-accelerated GTP hydrolysis; series mostly up to 114 µM; activity change, negative = inhibition: at the top concentration
# In short: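 MLSMR compounds (23 nl, pin-transferred) preincubated 10 min at room temperature with a 500nM (2x) first reagent, then RGS4 at 900nM (2x) plus Transcreener GDP mix added; fluorescence polarization (620/688 nm) read before and after 90 min at 30 °C.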
# % is scaled to controls: 0 for no effect and ±100 for the full control effect; potency is read from the fitted curve at half-maximal effect; tags tell the direction and shape of the fitted curve.
# Sequence of UniProt P49798 (P49798 whole entry, looked up): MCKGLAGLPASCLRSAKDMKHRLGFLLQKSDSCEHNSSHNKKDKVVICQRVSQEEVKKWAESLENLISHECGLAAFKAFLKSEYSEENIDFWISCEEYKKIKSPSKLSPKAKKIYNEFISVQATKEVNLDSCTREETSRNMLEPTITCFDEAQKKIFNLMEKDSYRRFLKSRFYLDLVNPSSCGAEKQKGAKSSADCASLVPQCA
Structure (SMILES),Potency,"activity change, negative = inhibition"
CCOc1ccc(OCC(=O)c2c(O)c3ccccc3oc2=O)cc1,"inconclusive: 89.1 µM [inhibitor, single point]",–
Cc1ccc(NC2=CC(=O)CC(C)(C)C2)cc1Cl,"inconclusive: 31.6 µM [inhibitor, full curve, poor fit]",–
CSc1cccc(NC(=O)/C=C/c2ccco2)c1,"inconclusive: 44.7 µM [inhibitor, partial curve, poor fit]",–
CCOc1ncccc1C(=O)OCC(=O)c1c(N)n(C)c(=O)n(C)c1=O,"inconclusive: 79.4 µM [inhibitor, single point]",–
COc1ccc(/C=C2\Sc3ccc(C(=O)NCCN4CCCCCC4)cc3N(C)C2=O)cc1,"inconclusive: 50.1 µM [inhibitor, partial curve, poor fit]",–
COc1cc(NC(=O)c2ccc(Cl)cc2)c(OC)cc1NC(=O)CN1CCCCC1,"inconclusive: 39.8 µM [inhibitor, full curve, poor fit]",–
Cc1sc2nc(CN3CCOCC3)nc(Cl)c2c1C,"inconclusive: 79.4 µM [inhibitor, single point]",–
CCOC(=O)c1cnc(SCC(=O)Nc2cc(OC)ccc2OC)nc1N,"inconclusive: 44.7 µM [inhibitor, partial curve, poor fit]",–
O=S(=O)(O)c1cc2onnc2c2ccccc12,"inconclusive: 50.1 µM [inhibitor, partial curve, poor fit]",–
Cn1c(SCC(=O)NCc2cccs2)nnc1-c1ccc(O)cc1,"inconclusive: 39.8 µM [inhibitor, partial curve, poor fit]",–
Clc1ccccc1CN1CCN(/N=C/C=C/c2ccco2)CC1,"inconclusive: 50.1 µM [inhibitor, partial curve, poor fit]",–
COc1ccc2nc(C)cc(SCC(=O)NNC(=O)COc3cccc4ccccc34)c2c1,"inconclusive: 79.4 µM [inhibitor, partial curve, poor fit]",–
Cc1nnc(-c2cccc(Br)c2)c2cn(-c3ccc(Br)cc3)nc12,"inconclusive: 31.6 µM [inhibitor, partial curve, poor fit]",–
CCC(=O)Nc1cccc(C(=O)/C=C/c2cc(Br)ccc2OC)c1,"inconclusive: 31.6 µM [inhibitor, full curve, poor fit]",–
COCC(=O)OCC(=O)c1cc(C)n(-c2ccc(Br)cc2)c1C,"inconclusive: 50.1 µM [inhibitor, partial curve, poor fit]",–
CC1(C)CC(=O)C(C(C2=C(O)CC(C)(C)CC2=O)c2cccs2)C(=O)C1 (stereo not given),"inconclusive: 44.7 µM [inhibitor, partial curve, poor fit]",–
Cc1ccc(S(=O)(=O)c2nc(C(C)(C)C)oc2N2CCOCC2)cc1,"inconclusive: 70.8 µM [inhibitor, partial curve, poor fit]",–
CSc1ccccc1-c1n[nH]c(=S)o1,"inconclusive: 79.4 µM [inhibitor, partial curve, poor fit]",–
Cc1cc(NC(=O)c2cc(C(C)C)on2)no1,"inconclusive: 100 µM [inhibitor, single point]",–
O=C(Nc1ccc(F)cc1)N1CCc2ccccc2C1,"inconclusive: 79.4 µM [inhibitor, partial curve, poor fit]",–

Structure (SMILES),Potency,"activity change, negative = inhibition"
CCCCOc1ccc(C(=O)NCCc2csc(-c3ccc(OC)cc3)n2)cc1,–,inactive: -2.91%
CCC1=NN(C(=O)c2ccc(Br)cc2)C(O)(c2ccccc2)C1 (stereo not given),–,inactive: -4.74%
CC(Oc1ccccc1Cl)C(=O)Nc1ccc(S(=O)(=O)N2CCN(C)CC2)cc1 (stereo not given),"inconclusive: 44.7 µM [inhibitor, partial curve, poor fit]",–
Cc1ccc(NC(=O)c2ccc3c(c2)CCN3S(C)(=O)=O)c(C)c1,"inconclusive: 70.8 µM [inhibitor, single point]",–
Cc1cc(NC(=O)c2sccc2C)n(-c2nc3ccccc3[nH]2)n1,"inconclusive: 89.1 µM [inhibitor, single point]",–
CC(Oc1ccc(Cl)cc1Cl)c1nc(-c2ccc(NC(=O)c3ccco3)cc2)no1 (stereo not given),"inconclusive: 89.1 µM [inhibitor, partial curve, poor fit]",–
CC(=O)Nc1cc(N=Cc2ccc(O)cc2O)c(Cl)cc1Cl,"inconclusive: 89.1 µM [inhibitor, single point]",–
Cc1cccc(C(=O)OC(C)C(=O)NC(=O)NC2CCCCC2)c1O (stereo not given),"inconclusive: 89.1 µM [inhibitor, single point]",–
CCOc1cccc(/C=C/c2ccc3cccc(O)c3n2)c1OC,–,inactive: -16.2%
CC1CCC2(CC1)NC(=S)N(c1ccccc1)N2 (stereo not given),"inconclusive: 56.2 µM [inhibitor, partial curve, poor fit]",–
O=C(CSc1nnc(-c2ccco2)o1)NC(=O)C1COc2ccccc2O1 (stereo not given),–,inactive: 30.8%
CCOC(=O)c1c(NC(=O)c2ccco2)n(C2CCCCC2)c2nc3ccccc3nc12,"inconclusive: 17.8 µM [inhibitor, full curve, poor fit]",–
Cc1ccc(S(=O)(=O)N(C)CC(=O)N2CCOCC2)cc1,"inconclusive: 79.4 µM [inhibitor, partial curve, poor fit]",–
Clc1ccccc1C1Nc2cccc3cccc(c23)N1,"inconclusive: 50.1 µM [inhibitor, partial curve, poor fit]",–
O=C(NNC(=S)Nc1ccc(Cl)cc1Cl)c1ccncc1,"inconclusive: 50.1 µM [inhibitor, partial curve, poor fit]",–
CC1CCN(C(=O)CSc2nncn2-c2ccccn2)CC1,"inconclusive: 89.1 µM [inhibitor, partial curve, poor fit]",–
Cc1nccn1CCCNCc1c(C(=O)N2CCCCCCC2)nc2ccc(Cl)cn12,"inconclusive: 10 µM [inhibitor, full curve, poor fit]",–
C=CCN(C(=O)Nc1ccc2oc(C)nc2c1)c1ccccc1,"inconclusive: 25.1 µM [inhibitor, full curve, poor fit]",–
O=C(Nc1cc(S(=O)(=O)N2CCOCC2)ccc1N1CCCC1)c1ccc2c(c1)S(=O)(=O)c1ccccc1C2=O,"inconclusive: 20 µM [inhibitor, full curve, poor fit]",–
C/C(=N\NC(=O)c1c(Cl)cnn1C)c1cccc(NC(=O)C(C)C)c1,"inconclusive: 100 µM [inhibitor, single point]",–

Structure (SMILES),Potency,"activity change, negative = inhibition"
Cc1ccccc1OCCNc1ccc(C(F)(F)F)cc1[N+](=O)[O-],"inconclusive: 100 µM [inhibitor, single point]",–
CCCN1C(=O)/C(=c2\sc3nc(=O)c(Cc4ccc(C)cc4)nn3c2=O)c2ccccc21,"inconclusive: 89.1 µM [inhibitor, single point]",–
COc1ccc(-c2nn(-c3ccccc3)cc2/C=N/NC(N)=S)cc1OC,"inconclusive: 50.1 µM [inhibitor, partial curve, poor fit]",–
CCNc1ccccc(C(=O)/C=C/c2ccc3c(c2)OCO3)c1=O,"inconclusive: 50.1 µM [inhibitor, partial curve, poor fit]",–
Cc1ccc(NC(=O)c2nc(S(=O)(=O)Cc3ccccc3)ncc2Cl)cc1,"inconclusive: 10 µM [inhibitor, full curve, poor fit]",–
COCCNC(=O)c1cc2cc3ccc(OC)cc3nc2o1,–,inactive: -1.2%
COc1ccccc1NC(=O)c1ccc(NC(=O)CSc2nnnn2C)cc1,"inconclusive: 79.4 µM [inhibitor, partial curve, poor fit]",–
COc1cc(C(=O)Nc2ccc(OCc3cc(=O)n4cccc(C)c4n3)cc2)cc(OC)c1OC,"inconclusive: 56.2 µM [inhibitor, partial curve, poor fit]",–
O=C(O)COc1cccc(/C=C2/SC(=S)N(Cc3ccccc3)C2=O)c1,"inconclusive: 50.1 µM [inhibitor, partial curve, poor fit]",–
C=CCOc1ccccc1C(=O)/C=C1/C(=O)Nc2ccccc21,"inconclusive: 20 µM [inhibitor, full curve, poor fit]",–
CCOC(=O)c1cccc(Nc2nc(-c3cccnc3)nc3ccccc23)c1,"inconclusive: 35.5 µM [inhibitor, full curve, poor fit]",–
CCOCCOc1cc(NCc2ccccc2)c2ncn(C(C)C)c2c1,"inconclusive: 28.2 µM [inhibitor, full curve, poor fit]",–
Cc1ccccc1C(=O)Nc1cccc(NC(=O)c2ccc(F)cc2)c1,–,inactive: 14.3%
CCN(CC)C(=O)[C@H]1C[C@H](CC(=O)NCc2ccc(OC)c(OC)c2)C(=O)N2CCc3c([nH]c4cc(-c5ccco5)ccc34)[C@]12C,"inconclusive: 28.2 µM [inhibitor, full curve, poor fit]",–
O=C1CCCCC1S(=O)(=O)c1ccccc1 (stereo not given),"inconclusive: 89.1 µM [inhibitor, single point]",–
COc1ccc(-c2ccc(/C=C3/C(=N)N4C(C)=CSC4=NC3=O)o2)c([N+](=O)[O-])c1,"inconclusive: 100 µM [inhibitor, partial curve, poor fit]",–
COCCNC(=O)CN1CCOc2ccccc21,"inconclusive: 89.1 µM [inhibitor, single point]",–
CCCC1=C/C(=C/c2ccc(-c3ccccc3OC)o2)C(=O)O1,"inconclusive: 89.1 µM [inhibitor, partial curve, poor fit]",–
Cc1ccc(NC(=S)c2nc3ccccc3s2)cc1,"inconclusive: 100 µM [inhibitor, single point]",–
COc1ccc(Cl)cc1NC(=O)COc1cccc2c(=O)n(C)ccc12,"inconclusive: 100 µM [inhibitor, partial curve, poor fit]",–
